Test results reported in article PMC12040169 (PLOS Biology, 2025).
Some of the results follow.

system: T1, C. trachomatis L2/434/Bu expressing GFP (CTL2-GFP); design: species or system HeLa; C. trachomatis total inclusion area by high-content imaging, normalised to DMSO; conditions: total inclusion area; 28.5 h, 10 µM; inhibitor
T1 construct: L2/434/Bu GFP intracellular growth in HeLa cells
Text: In this process, we also complemented the assay described above with an imaging-based readout (Fig 1B). After measurements of bulk GFP and resorufin fluorescence, cells were fixed, stained with the DNA dye Hoechst, and imaged at a high-content imaging platform to detect chlamydial inclusions (GFP) and host cell nuclei (Hoechst). The total area and number of inclusions in individual wells and the number of nuclei then served as additional proxies for chlamydial growth and host cell viability. […] MICs were calculated as described above.

Structure (SMILES) | % of control remaining
O=C(N[C@H]1CO[C@H]2[C@@H]1OC[C@@H]2Nc1nccc(-c2cccs2)n1)C1CC1 [CBK289517] | 70.1679
CCOC(=O)c1cnn(C2CCCN(Cc3cc(C#N)cs3)C2)c1 (stereo not shown) [CBK305399] | 88.9838
CC(C(=O)O)N1C(=O)c2ccccc2C1c1c[nH]c2ccccc12 (stereo not shown) [CBK286576] | 48.8596
CC1CCC/C(=N\NC(=O)C2C3CCCCC32)C1 (stereo not shown) [CBK025750] | 73.5956
Cc1nc(C2CCCC2)cc([C@H]2CN3CC[C@H]2C[C@@H]3CNS(C)(=O)=O)n1 [CBK289121] | 111.365
CNS(=O)(=O)c1cc(C(=O)O)c(OC)cc1OC [CBK110325] | 95.09
CN(C)c1ncc(Br)cc1C(=O)NCCNS(=O)(=O)c1ccccc1 [CBK076504] | 90.3719
COc1cc(/C=C2\SC(=N)NC2=O)cc(Br)c1OS(=O)(=O)c1ccc(C)cc1 [CBK263609] | 116.551
COc1cccc(C(=O)N2CCC(NC(=O)c3cc(F)ccc3F)CC2)c1 [CBK155026] | 66.3578
O=c1cc(N2CCN(CC3(O)CCNC3)CC2)c(-c2ccccc2)n[nH]1 (stereo not shown) [CBK307088] | 37.3581
Cc1c(C)n(Cc2cccnc2)c2ncn(C3CCCCCC3)c(=N)c12 [CBK287932] | 58.93
O=C(N/N=C\C=C\c1ccco1)c1ccc([N+](=O)[O-])cc1 [CBK261961] | 106.711
CC(C)(C)CN1CCC(Oc2nccnc2OCc2ccc(Br)cc2F)CC1 [CBK161946] | 103.468
c1ccc(Sc2nccnc2N2CCCC2)nc1 [CBK093734] | 101.481
O=C(CO)N1CC2(CCN(CC3COc4ccccc4O3)CC2)c2ccccc21 (stereo not shown) [CBK143951] | 87.6705
NC(=O)Cn1cc(C(=O)c2ccncc2)c(=O)c2cc(Cl)ccc21 [CBK288584] | 90.8325
N#Cc1ccc(NC(=O)CSc2cnn[nH]2)cc1 [CBK269931] | 91.6334
CC(=O)Nc1ccc(S(=O)(=O)Nc2cc(C)c(-n3nc4ccccc4n3)cc2O)cc1 [CBK268382] | 103.001
Clc1ccc(COc2cc(N3CCCN(Cc4ccccc4-c4ccccc4)CC3)ncn2)cc1Cl [CBK083781T] | 71.4344
CNC(=O)C1(Cc2ccc(-c3ccccc3)cc2)CCN(C(=O)c2cccc(OC)c2)CC1 [CBK285788] | 92.3964
CC(Oc1ccc(Cl)cc1Cl)C(=O)NCCc1cccc(Cl)c1 (stereo not shown) [CBK265489] | 96.7087
Nc1ccc(-c2nnc(SCC(=O)Nc3ccc(Br)cc3F)n2-c2ccccc2)cc1 [CBK267175] | 115.397
COc1ccc(C(C)C)cc1-c1cncc(NCCc2c[nH]c3ccccc23)n1 [CBK065174] | 71.7547
OC1(c2ccccc2)CCN(Cc2cncn2Cc2ccccc2)C1 (stereo not shown) [CBK282809] | 85.3967
CC(C)(CO)CNC(=O)c1cnc(-c2ccccc2)c(-c2ccncc2)c1 [CBK036734] | 88.5484
CCOC(=O)C1CCCN(Cc2nnsc2Cl)C1 (stereo not shown) [CBK304848] | 43.3712
CC(C)[C@@H](CO)Nc1nccnc1-c1ccc(CN)cc1 [CBK036640] | 145.76

Structure (SMILES) | % of control remaining
Cc1cc(C2CCCCCN2C(=O)c2c(C)noc2C)on1 (stereo not shown) [CBK284844] | 85.6566
Cc1ccc(S(=O)(=O)Nc2ccc(Nc3cc(-c4cccc([N+](=O)[O-])c4)ncn3)cc2)cc1 [CBK090983] | 115.128
COc1cccc([C@H]2CN(C(=O)c3ccccc3)[C@@H]3CCN(Cc4cccs4)C[C@H]23)c1 [CBK285609] | 83.8758
COc1ccc(OC(C)C(=O)Nc2ccc(C(=O)O)cc2)cc1 (stereo not shown) [CBK263622] | 79.2529
CCOc1ccc(CN2CCN(CC(=O)Nc3cc(C)on3)CC2)cc1 [CBK306116] | 39.2348
COc1ccc(N2C(=O)CC(N3CCN(c4ccc(S(=O)(=O)N5CCCC5)cc4)CC3)C2=O)cc1 (stereo not shown) [CBK268851] | 97.1951
CC#CC(=O)N1CCCC(Cc2ccc(F)cc2F)(C(=O)OCC)C1 (stereo not shown) [CBK307051] | 58.0484
CSc1ccc(-c2nc(NC(=O)C(C)C)cc3cccnc23)cc1 [CBK081262] | 75.6065
COCC1CCN(C(=O)Nc2ccc(F)c(N3CCCNC3=O)c2)C1 (stereo not shown) [CBK305487] | 63.0494
CC(NC(=O)c1ccccc1Br)c1nnc(SCc2ccc([N+](=O)[O-])cc2)n1C (stereo not shown) [CBK267810] | 87.8404
CN1C[C@@H](NC(=O)c2cccnc2)C[C@H]1c1nc(-c2cccnc2)no1 [CBK288857] | 103.252
CC1CC(C)CN(C(=O)CN2C(=O)N3CCN=C3c3ccccc32)C1 (stereo not shown) [CBK283960] | 103.264
COc1cc(Nc2cccc(-c3cccc(NC(C)=O)c3)n2)cc(OC)c1OC [CBK037698] | 77.5777
O=C(O)c1ccccc1NC(=O)N1CCc2[nH]cnc2C1c1cccc(F)c1 (stereo not shown) [CBK286824] | 102.154
c1cc(CCNc2cc(-c3ccc4c(c3)OCO4)ncn2)ccn1 [CBK037689] | 103.693
Cc1cc(NC(=O)NC2CCOc3ccccc32)no1 (stereo not shown) [CBK304581] | 23.2199
CCCN(CCc1ccc(C(F)(F)F)cc1)C1Cc2cc(OC)c(OC)cc2C1 [CBK017829C] | 29.5023
O=C(CSS(=O)(=O)O)NCc1ccccc1 [CBK260897N] | 112.97
Cc1cc(CN(C)Cc2ccc(-n3ccnc3C)cc2)n[nH]1 [CBK281989] | 104.837
Cc1nccn1CCCn1cncc1-c1cnn(C2CCCCC2)c1 [CBK281816] | 93.2227
CCN(CC)C(=O)CNS(=O)(=O)c1ccc(C)cc1 [CBK034491] | 106.144
COc1ccc(C(CNCC(O)COc2cccc3c2CCCC3)c2ccccc2)cc1 (stereo not shown) [CBK028144] | 11.341
O=c1cc(CN2CCN(c3ccccc3)CC2)occ1O [CBK288392] | 81.3814
O=C(C1CC1)N1CCC(c2nc(Cc3cccs3)no2)C1 (stereo not shown) [CBK282980] | 105.123
NC(=O)C1CCN(C(=O)CSc2nc3ccccc3o2)CC1 [CBK265930] | 95.3318
Cc1nc2c(C(=O)NCC(F)(F)F)cnn2c(C)c1Cc1cccc(F)c1 [CBK162117] | 83.9019
COc1ccc2[nH]c3c(c2c1)CCNC31CCCN(CCc2ccc(F)cc2)C1 (stereo not shown) [CBK039246] | 66.4185

Structure (SMILES) | % of control remaining
CCOC(=O)[C@@]12CC=CCN(C(=O)c3cccnc3)[C@@H]1CCC2 [CBK284575] | 114.899
Cc1ccc(SCC(=O)NCc2nc(-c3ccccc3)no2)cc1 [CBK269474] | 83.6691
OC(CN1CCN(Cc2ccc3c(c2)OCO3)CC1)C(F)(F)F (stereo not shown) [CBK074833] | 67.2673
Cc1cc(=O)oc2cc(OCC(=O)Nc3ccc(S(=O)(=O)O)cc3)ccc12 [CBK301204N] | 94.435
O=C(C1CCC1)N1CCN(c2ccccn2)CC1 [CBK026058] | 81.4713
Cc1cc(COc2cc(C(F)(F)F)ccn2)no1 [CBK115787] | 133.308
OCCNCCOc1ccc(Cl)cc1Br [CBK265083G] | 97.0748
Cc1cccc(N/C=C(/C#N)c2nc(-c3ccc4c(c3)OCO4)cs2)c1C [CBK263013] | 91.7627
Cc1ccc(-c2cncc(NCc3cccs3)n2)cc1C [CBK065967] | 121.932
CCn1c(C)nnc1SCCNc1cc(C(C)C)nc2ccnn12 [CBK306829] | 62.4817
O=C(O)/C=C\C(=O)NCC(=O)O [CBK260989] | 96.828
COc1ccc(C(=O)Nc2ccc(C3c4ccsc4CCN3C(C)=O)cc2)cc1 (stereo not shown) [CBK286465] | 75.3338
COc1ccc(C(=O)N2CC[C@H]3CC(=O)N(CCNC(C)=O)CC[C@H]3C2)cc1 [CBK288784] | 88.7796
CCOC(=O)Cc1csc(SC(C)C(=O)N2CCNC2=O)n1 (stereo not shown) [CBK304551] | 101.323
COCC(=O)N1CCN2C(=O)c3ccc(Cl)cc3NC(=O)[C@H]2C1 [CBK289588] | 104.222
Cc1ccc2c(c1)cc(C(=O)N1CCCC(C)(C(=O)NC3CCCC3)C1)n2C (stereo not shown) [CBK286076] | 82.4391
CN(C)CCCN1C(=O)C(O)=C(C(=O)c2ccc(F)cc2)C1c1ccco1 (stereo not shown) [CBK264456] | 103.973
c1ccc2cc(CCN3CCN(c4nccnc4OCCN4CCOCC4)CC3)ccc2c1 [CBK082911T] | 85.9451
CCOC(=O)c1[nH]c2ccccc2c1NS(=O)(=O)Cc1ccccc1 [CBK047413] | 107.521
CS(=O)(=O)N1CC2(CCN(Cc3ncc[nH]3)CC2)c2ccccc21 [CBK126680] | 98.4402
O=C(Nc1ccc(F)cc1)c1c(NS(=O)(=O)Cc2ccccc2[N+](=O)[O-])sc2c1CCCC2 [CBK028654] | 81.0667
CCN1C(=O)c2ccccc2C(=O)[C@@]2(C)CN(C(C)C)C[C@@H]12 [CBK283480] | 80.3874
COC(=O)[C@@H](C)NC(=O)[C@H]1CN(S(=O)(=O)c2ccccc2)CCN1C(C)=O [CBK289626] | 118.653
Cc1nc(C)c(C(=O)N2CC(C(=O)N3CCN(c4ccccc4)CC3)C2)s1 [CBK285666] | 110.487
O=C1Cc2ccccc2C2(CCN(C(=O)c3cccc4cccc(C(=O)O)c34)CC2)N1 [CBK047313] | 84.159
